In the supplement of paper PMC3334620:
The full ranking holds about 33,000 sequences; the median of “E-score (-0.5 to 0.5)” is about -0.012, and the highest 2% start at about 0.27. The list shows a part of the results.

Each sequence was assayed against T1, Vhr1 (UniProt P40522) (assay: PBM E-score (8-mer binding enrichment) (E-score (-0.5 to 0.5)); higher = stronger / more preferred TF binding; most listed sequences are background and not binding sites). Conditions: protein concentration: 200 nM; construct: GST-full length.
T1 sequence: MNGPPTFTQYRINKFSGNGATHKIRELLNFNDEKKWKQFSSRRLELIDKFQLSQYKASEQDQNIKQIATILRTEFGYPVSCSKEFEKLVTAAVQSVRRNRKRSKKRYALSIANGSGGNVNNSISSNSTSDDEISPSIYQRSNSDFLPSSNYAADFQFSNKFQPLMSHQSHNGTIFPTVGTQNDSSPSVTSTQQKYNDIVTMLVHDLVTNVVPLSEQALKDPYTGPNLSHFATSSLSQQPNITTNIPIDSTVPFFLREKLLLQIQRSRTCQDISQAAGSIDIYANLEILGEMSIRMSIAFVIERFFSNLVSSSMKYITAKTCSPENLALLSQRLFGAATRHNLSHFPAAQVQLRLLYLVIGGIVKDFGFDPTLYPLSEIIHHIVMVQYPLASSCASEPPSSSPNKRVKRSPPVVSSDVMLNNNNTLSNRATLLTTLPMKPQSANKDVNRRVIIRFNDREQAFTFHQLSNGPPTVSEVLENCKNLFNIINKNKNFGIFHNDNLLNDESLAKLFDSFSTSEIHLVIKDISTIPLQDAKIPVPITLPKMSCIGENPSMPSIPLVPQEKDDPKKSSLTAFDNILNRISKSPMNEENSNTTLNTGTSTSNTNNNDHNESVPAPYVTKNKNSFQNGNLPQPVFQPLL
Summary of the method: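 Universal all-10-mer Agilent arrays, fresh or stripped once, were converted to double-stranded form by primer extension. GST-tagged yeast transcription factors from PURExpress in vitro transcription/translation, full-length or DNA-binding domain only, were applied at about 100-200 nM and detected with fluorescent anti-GST. After masliner normalisation, the Universal PBM Analysis Suite scored each ungapped eight-base word together with its reverse complement by E-score.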

| Sequence | PBM E-score |
| --- | --- |
| AGGGCGAT | -0.0273 |
| TATATACA | 0.162 |
| ACCCGGCG | -0.0379 |
| AGCAGACT | -0.166 |
| ACCCAAAA | -0.127 |
| CAAGGCAA | -0.128 |
| GGTACGTA | 0.0346 |
| AACGGACA | -0.0146 |
| CCTAATGC | -0.14 |
| ACGGAGCC | -0.0806 |
| AGGCGTAC | -0.0151 |
| ACTGACTG | 0.0572 |
| TAATACTA | 0.114 |
| AATTTTTC | -0.131 |
| CGCACTCC | -0.15 |
| ACCCGAAT | 0.0408 |
| CTGATAAC | -0.00673 |
| ATCTAAAA | 0.0219 |
| CGTAAGGC | -0.167 |
| GAACCGCC | 0.0756 |
| TCCCCGGA | 0.0112 |
| CTAGTTTC | 0.177 |
| CGTTCGCC | -0.0877 |
| CAGGGGAA | 0.00812 |

| Sequence | PBM E-score |
| --- | --- |
| ATCCGCAC | 0.201 |
| CACAATCA | 0.143 |
| GGATACAC | 0.15 |
| AGACGCAT | -0.0874 |
| CCATAAAG | -0.142 |
| ATCTTGCC | -0.0221 |
| GACTTAGC | -0.19 |
| ACTTGTAG | -0.0865 |
| ACCTCGGC | -0.00019 |
| ACAGTGCC | 0.0284 |
| TCCTCGAA | -0.165 |
| GAAAATTC | -0.274 |
| TAGCTTGA | -0.119 |
| TAGTGCGA | 0.092 |
| CCCTCGCG | -0.0645 |
| GACGAAGA | -0.0356 |
| ATAATTGA | 0.106 |
| CGTGTAAC | -0.042 |
| ATCCCTCC | -0.0597 |
| CGGTATCC | 0.062 |
| ACCACACT | 0.0172 |
| TTACCCAA | -0.0451 |
| CTGAGGGC | -0.236 |
| ATAAATAT | 0.131 |

| Sequence | PBM E-score |
| --- | --- |
| CGGTCGCC | 0.0397 |
| CTACACCC | -0.0346 |
| GCGGCCAC | 0.0847 |
| TCGCACCA | 0.219 |
| GAGATTAC | 0.2 |
| CGCACGGA | 0.0396 |
| AATTCACT | -0.0741 |
| AGCGCGCG | 0.0844 |
| AAACCTCG | -0.166 |
| ACAGTCCT | 0.025 |
| ATCCTCAC | 0.159 |
| ATTGAAGA | -0.118 |
| ATTATGCC | 0.0893 |
| CAGACATG | 0.0554 |
| AGCTACCC | -0.0112 |
| CGACCGTC | -0.19 |
| ACAACCGA | 0.204 |
| ATAGGAGG | -0.0587 |
| TGGAATAA | -0.145 |
| AGTGAGAA | -0.058 |
| GCTCGCTA | -0.0499 |
| AGTACCAT | 0.0849 |
| AATTCACC | 0.14 |
| GATATCCC | 0.0153 |

| Sequence | PBM E-score |
| --- | --- |
| AAGATGGC | -0.0738 |
| ATGATCGA | 0.101 |
| ACGGATCC | 0.117 |
| CAATGTGC | 0.016 |
| GATATGCA | -0.0288 |
| AGGGTACC | -0.252 |
| GCGACATA | 0.0386 |
| AAGGAGCG | -0.0927 |
| GACGTTAC | -0.062 |
| GTCTGGAA | -0.151 |
| CACTTACC | 0.0726 |
| CGGGGAAA | 0.0594 |
| TGCCATAA | -0.189 |
| GAAGTAAC | -0.142 |
| CGATGTTA | 0.0662 |
| CCTGTGCG | 0.0725 |
| CAACTTAA | -0.23 |
| AGTAGAAA | -0.185 |
| TACCCTAA | 0.00346 |
| GTGCAACA | -0.0429 |
| GTGTGATA | 0.246 |
| AGGTTTAT | 0.201 |
